# Measurements from the supplement of paper PMC8728848.
# Some of the results follow.
# B1: Gal 4 (Homo sapiens), Q8K419 (protein)
# chain: MAYVPAPGYQPTYNPTLPYKRPIPGGLSVGMSVYIQGMAKENMRRFHVNFAVGQDDGADVAFHFNPRFDGWDKVVFNTMQSGQWGKEEKKKSMPFQKGKHFELVFMVMPEHYKVVVNGNSFYEYGHRLPVQMVTHLQVDGDLELQSINFLGGQPAAAPYPGAMTIPAYPAGSPGYNPPQMNTLPVMTGPPVFNPRVPYVGALQGGLTVRRTIIIKGYVLPTARNFVINFKVGSSGDIALHLNPRIGDSVVRNSFMNGSWGAEERKVAYNPFGPGQFFDLSIRCGMDRFKVFANGQHLFDFSHRFQAFQMVDTLEINGDITLSYVQI
# Columns and labels:
# Test in all cases: glycan array binding signal (z-score within array); higher = stronger binding
# Settings in all cases: glycan notation: IUPAC condensed, linker removed
# [1] = biological target: Fuc(a1-2)Gal(b1-4)[Fuc(a1-3)]GlcNAc(b1-2)Man(a1-6)[Fuc(a1-2)Gal(b1-4)[Fuc(a1-3)]GlcNAc(b1-2)Man(a1-3)]Man(b1-4)GlcNAc(b1-4)[Fuc(a1-6)]GlcNAc
# In short: (§1)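 Columns mapping to the same glycan were averaged after glycan names were converted to IUPAC-condensed notation. The data come from 3228 arrays in the Consortium for Functional Glycomics database, limited to those with an available protein sequence. Binding is reported as a within-array Z-score averaged across arrays of one protein sequence and across linkers.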
# [2] = biological target: Fuc(a1-2)Gal(b1-4)[Fuc(a1-3)]GlcNAc(b1-2)[Fuc(a1-2)Gal(b1-4)[Fuc(a1-3)]GlcNAc(b1-4)]Man(a1-3)[Fuc(a1-2)Gal(b1-4)[Fuc(a1-3)]GlcNAc(b1-2)Man(a1-6)]Man(b1-4)GlcNAc(b1-4)GlcNAc
# In short: as §1
# [3] = biological target: Fuc(a1-2)Gal(b1-4)[Fuc(a1-3)]GlcNAc(b1-3)Gal(b1-4)[Fuc(a1-3)]GlcNAc
# In short: as §1
# [4] = biological target: Fuc(a1-2)Gal(b1-4)[Fuc(a1-3)]GlcNAc(b1-3)Gal(b1-4)[Fuc(a1-3)]GlcNAc(b1-3)Gal(b1-4)[Fuc(a1-3)]GlcNAc
# In short: as §1
# [5] = biological target: Fuc(a1-2)Gal(b1-4)[Fuc(a1-3)]GlcNAc(b1-3)GalNAc
# In short: as §1
# [6] = biological target: Fuc(a1-2)Gal(b1-4)[Fuc(a1-3)]GlcNAc(b1-3)[Neu5Ac(a2-6)Gal(b1-4)GlcNAc(b1-6)]Gal(b1-4)Glc
# In short: as §1
# [7] = biological target: Fuc(a1-2)Gal6S(b1-3)GlcNAc
# In short: as §1
# [8] = biological target: Fuc(a1-2)Gal6S(b1-3)GlcNAc6S
# In short: as §1
# [9] = biological target: Fuc(a1-2)Gal6S(b1-4)Glc
# In short: as §1
# [10] = biological target: Fuc(a1-2)Gal6S(b1-4)Glc6S
# In short: as §1
# [11] = biological target: Fuc(a1-2)Gal6S(b1-4)GlcNAc
# In short: as §1
# [12] = biological target: Fuc(a1-2)[Gal(a1-3)]Gal
# In short: as §1
# [13] = biological target: Fuc(a1-2)[Gal(a1-3)]Gal(b1-3)GalNAc
# In short: as §1
# [14] = biological target: Fuc(a1-2)[Gal(a1-3)]Gal(b1-3)GlcNAc
# In short: as §1
# [15] = biological target: Fuc(a1-2)[Gal(a1-3)]Gal(b1-3)GlcNAc(b1-2)Man(a1-3)[Fuc(a1-2)[Gal(a1-3)]Gal(b1-3)GlcNAc(b1-2)Man(a1-6)]Man(b1-4)GlcNAc(b1-4)GlcNAc
# In short: as §1
# [16] = biological target: Fuc(a1-2)[Gal(a1-3)]Gal(b1-3)GlcNAc(b1-2)Man(a1-3)[Fuc(a1-2)[Gal(a1-3)]Gal(b1-3)GlcNAc(b1-2)Man(a1-6)]Man(b1-4)GlcNAc(b1-4)[Fuc(a1-6)]GlcNAc
# In short: as §1
# [17] = biological target: Fuc(a1-2)[Gal(a1-3)]Gal(b1-3)GlcNAc(b1-3)GalNAc
# In short: as §1
# [18] = biological target: Fuc(a1-2)[Gal(a1-3)]Gal(b1-4)Glc
# In short: as §1
# [19] = biological target: Fuc(a1-2)[Gal(a1-3)]Gal(b1-4)GlcNAc
# In short: as §1
# [20] = biological target: Fuc(a1-2)[Gal(a1-3)]Gal(b1-4)GlcNAc(b1-2)Man(a1-3)[Fuc(a1-2)[Gal(a1-3)]Gal(b1-4)GlcNAc(b1-2)Man(a1-6)]Man(b1-4)GlcNAc(b1-4)GlcNAc
# In short: as §1
# [21] = biological target: Fuc(a1-2)[Gal(a1-3)]Gal(b1-4)GlcNAc(b1-2)Man(a1-3)[Fuc(a1-2)[Gal(a1-3)]Gal(b1-4)GlcNAc(b1-2)Man(a1-6)]Man(b1-4)GlcNAc(b1-4)[Fuc(a1-6)]GlcNAc
# In short: as §1
# [22] = biological target: Fuc(a1-2)[Gal(a1-3)]Gal(b1-4)GlcNAc(b1-3)GalNAc
# In short: as §1
# [23] = biological target: Fuc(a1-2)[Gal(a1-3)]Gal(b1-4)GlcNAc(b1-6)GalNAc
# In short: as §1
# [24] = biological target: Fuc(a1-2)[Gal(a1-3)]Gal(b1-4)[Fuc(a1-3)]Glc
# In short: as §1
# [25] = biological target: Fuc(a1-2)[Gal(a1-3)]Gal(b1-4)[Fuc(a1-3)]GlcNAc
# In short: as §1
# [26] = biological target: Fuc(a1-2)[Gal(a1-3)]Gal(b1-4)[Fuc(a1-3)]GlcNAc(b1-3)GalNAc
# In short: as §1
# [27] = biological target: Fuc(a1-2)[Gal(a1-4)]Gal(b1-4)GlcNAc
# In short: as §1
# [28] = biological target: Fuc(a1-2)[GalNAc(a1-3)]Gal
# In short: as §1
# [29] = biological target: Fuc(a1-2)[GalNAc(a1-3)]Gal(b1-3)GalNAc(a1-3)[Fuc(a1-2)]Gal(b1-4)GlcNAc
# In short: as §1
# [30] = biological target: Fuc(a1-2)[GalNAc(a1-3)]Gal(b1-3)GlcNAc
# In short: as §1
# [31] = biological target: Fuc(a1-2)[GalNAc(a1-3)]Gal(b1-3)GlcNAc(b1-2)Man(a1-3)[Fuc(a1-2)[GalNAc(a1-3)]Gal(b1-3)GlcNAc(b1-2)Man(a1-6)]Man(b1-4)GlcNAc(b1-4)GlcNAc
# In short: as §1
# [32] = biological target: Fuc(a1-2)[GalNAc(a1-3)]Gal(b1-3)GlcNAc(b1-2)Man(a1-3)[Fuc(a1-2)[GalNAc(a1-3)]Gal(b1-3)GlcNAc(b1-2)Man(a1-6)]Man(b1-4)GlcNAc(b1-4)[Fuc(a1-6)]GlcNAc
# In short: as §1
# [33] = biological target: Fuc(a1-2)[GalNAc(a1-3)]Gal(b1-3)GlcNAc(b1-3)GalNAc
# In short: as §1
# [34] = biological target: Fuc(a1-2)[GalNAc(a1-3)]Gal(b1-3)GlcNAc(b1-6)GalNAc
# In short: as §1
# [35] = biological target: Fuc(a1-2)[GalNAc(a1-3)]Gal(b1-4)Glc
# In short: as §1
# [36] = biological target: Fuc(a1-2)[GalNAc(a1-3)]Gal(b1-4)GlcNAc
# In short: as §1
# [37] = biological target: Fuc(a1-2)[GalNAc(a1-3)]Gal(b1-4)GlcNAc(b1-2)Man(a1-3)[Fuc(a1-2)[GalNAc(a1-3)]Gal(b1-4)GlcNAc(b1-2)Man(a1-6)]Man(b1-4)GlcNAc(b1-4)GlcNAc
# In short: as §1
# [38] = biological target: Fuc(a1-2)[GalNAc(a1-3)]Gal(b1-4)GlcNAc(b1-2)Man(a1-3)[Fuc(a1-2)[GalNAc(a1-3)]Gal(b1-4)GlcNAc(b1-2)Man(a1-6)]Man(b1-4)GlcNAc(b1-4)[Fuc(a1-6)]GlcNAc
# In short: as §1
binder,measurement,setting,value
B1,glycan array binding signal (z-score),[1],-0.207
same,glycan array binding signal (z-score),[2],-0.149
same,glycan array binding signal (z-score),[3],-0.203
same,glycan array binding signal (z-score),[4],-0.202
same,glycan array binding signal (z-score),[5],-0.182
same,glycan array binding signal (z-score),[6],-0.21
same,glycan array binding signal (z-score),[7],-0.214
same,glycan array binding signal (z-score),[8],-0.183
same,glycan array binding signal (z-score),[9],-0.196
same,glycan array binding signal (z-score),[10],-0.201
same,glycan array binding signal (z-score),[11],-0.198
same,glycan array binding signal (z-score),[12],-0.201
same,glycan array binding signal (z-score),[13],0.833
same,glycan array binding signal (z-score),[14],2.91
same,glycan array binding signal (z-score),[15],1.26
same,glycan array binding signal (z-score),[16],0.436
same,glycan array binding signal (z-score),[17],0.753
same,glycan array binding signal (z-score),[18],3.5
same,glycan array binding signal (z-score),[19],1.43
same,glycan array binding signal (z-score),[20],0.405
same,glycan array binding signal (z-score),[21],0.074
same,glycan array binding signal (z-score),[22],-0.006
same,glycan array binding signal (z-score),[23],-0.21
same,glycan array binding signal (z-score),[24],-0.108
same,glycan array binding signal (z-score),[25],-0.199
same,glycan array binding signal (z-score),[26],-0.195
same,glycan array binding signal (z-score),[27],-0.197
same,glycan array binding signal (z-score),[28],-0.2
same,glycan array binding signal (z-score),[29],-0.024
same,glycan array binding signal (z-score),[30],4.09
same,glycan array binding signal (z-score),[31],1.51
same,glycan array binding signal (z-score),[32],0.306
same,glycan array binding signal (z-score),[33],0.518
same,glycan array binding signal (z-score),[34],1.99
same,glycan array binding signal (z-score),[35],9.63
same,glycan array binding signal (z-score),[36],1.31
same,glycan array binding signal (z-score),[37],0.832
same,glycan array binding signal (z-score),[38],0.088
